Experimental findings from article PMC10668032 are described below.

The other results are listed elsewhere or left out. At the low end of the ranking, values are background and their order means little.

This test concerns the target SIX1-Q177R homeodomain (UniProt Q15475). Briefly: universal protein binding microarray. The following applies: Universal all-10-mer PBM (8x60K, AMADID 030236), 300 nM GST-tagged protein, Alexa Fluor 488 anti-GST; buffer, salt, pH and temperature not stated; high values mean tight binding; most listed sequences are background and not binding sites; double strand, one strand shown.
In the case of AGCTGCAA, the binding signal was -0.271 E-score.

Take AGGTCGCA: the binding signal was -0.186 E-score.

Turning to GACTGTGC, the binding signal is -0.0602 E-score.

Regarding AGCGCTAA, the binding signal is -0.21 E-score.

ATAAAAGC: the binding signal is -0.233 E-score.

GCGGCACC: the binding signal amounted to 0.0983 E-score.

As for AATCCCTG, the binding signal was -0.0117 E-score.

For the sequence GCCGAGGC, the binding signal is -0.0807 E-score.

Consider GACGGTCC, for which the binding signal was -0.167 E-score.

Take CCTACTCC: the binding signal amounted to 0.179 E-score.

For CGGATCGA, the binding signal was -0.0219 E-score.

As to TAGGCTAA, the binding signal was -0.0334 E-score.

With AGGCGTGG, the binding signal is -0.0826 E-score.

Turning to GTCGAGTA, the binding signal stood at 0.198 E-score.

As for GTACACAC, the binding signal worked out at 0.355 E-score.

ATGGTGGC: the binding signal worked out at 0.0215 E-score.

In the case of TATTGCGA, the binding signal is 0.106 E-score.

For the sequence ATGATAAA, the binding signal was -0.16 E-score.

Consider GGCCGCCC, for which the binding signal is -0.207 E-score.

Regarding CATCATGA, the binding signal was -0.0511 E-score.

With AGCGGATC, the binding signal was 0.0137 E-score.

Turning to AGGGTACA, the binding signal came to 0.237 E-score.

For GGATTCCC, the binding signal turned out to be 0.09 E-score.

On to TACTGTGA, for which the binding signal is -0.124 E-score.

Consider GATTGGGA, for which the binding signal was -0.135 E-score.

GGACATGA: the binding signal is -0.203 E-score.

As for AGTTTACC, the binding signal is 0.00313 E-score.

Take GTTCGGAA: the binding signal is -0.0994 E-score.

As for GTTCCGGA, the binding signal was 0.175 E-score.

As to ACTACTCG, the binding signal is 0.203 E-score.

On to CACTTACC, for which the binding signal was determined as 0.224 E-score.

In the case of ACAATGTA, the binding signal came to 0.0524 E-score.

Regarding TGCCGGCA, the binding signal was determined as 0.0673 E-score.

Turning to AAAGGACT, the binding signal is -0.266 E-score.

CAGATCGC: the binding signal is -0.0695 E-score.

Turning to CAGGTTCA, the binding signal is -0.0119 E-score.

Regarding ATTTTGTA, the binding signal was -0.185 E-score.

On to ATGGCGCA, for which the binding signal is -0.0733 E-score.

On to ATCGGAGG, for which the binding signal stood at 0.124 E-score.

As to AAGTCCAA, the binding signal was -0.255 E-score.

As to CTGATATA, the binding signal came to 0.00826 E-score.

AGCACCGG: the binding signal stood at 0.206 E-score.

Consider ACGCACTA, for which the binding signal amounted to 0.0667 E-score.

CCAGCCCA: the binding signal is -0.0709 E-score.

Turning to AGTAAGTA, the binding signal was -0.0725 E-score.

Consider CACGTATA, for which the binding signal was found to be 0.21 E-score.

In the case of CGCATTCC, the binding signal was -0.164 E-score.

CGGCTGAC: the binding signal is 0.174 E-score.

GGACACGA: the binding signal was 0.356 E-score.

For GTAGACAA, the binding signal was 0.0524 E-score.

Regarding GGAGAAAC, the binding signal turned out to be 0.0311 E-score.

As for CGACGTCA, the binding signal is -0.282 E-score.

Consider CTGCCATC, for which the binding signal is -0.244 E-score.

Turning to ACAATCGT, the binding signal was -0.152 E-score.

Turning to CTCAGCCA, the binding signal is -0.196 E-score.

For the sequence CCTAGACG, the binding signal was -0.163 E-score.

For the sequence CGCTATAC, the binding signal amounted to 0.0171 E-score.

In the case of ATGTCGGA, the binding signal amounted to 0.0279 E-score.

On to CTTGATGC, for which the binding signal was -0.234 E-score.

For the sequence CAAGGTCG, the binding signal was -0.0416 E-score.

Turning to ATACATAG, the binding signal was -0.11 E-score.

Regarding TCGGTGCA, the binding signal stood at 0.232 E-score.

For the sequence CAAACGAG, the binding signal turned out to be 0.042 E-score.

AATTTCTA: the binding signal is 0.0566 E-score.

As to CACGGCGC, the binding signal amounted to 0.139 E-score.

In the case of CACCCCTG, the binding signal was 0.351 E-score.

AAATGGTC: the binding signal is -0.023 E-score.

On to ATTACGGA, for which the binding signal is -0.131 E-score.

With CAAAATCA, the binding signal was -0.168 E-score.

Turning to AGGACTAC, the binding signal is -0.0622 E-score.

In the case of AATAACAC, the binding signal is 0.426 E-score.

For the sequence ATTATACC, the binding signal is 0.141 E-score.

Regarding CCACGTGG, the binding signal stood at 0.098 E-score.

Take CCACCTAG: the binding signal is -0.018 E-score.

ATAGTCGG: the binding signal stood at 0.0728 E-score.

Regarding ATGCGCTC, the binding signal amounted to 0.0171 E-score.

GAGGCTCA: the binding signal is -0.172 E-score.

In the case of ATTAGCCG, the binding signal was -0.0403 E-score.

Consider CCATTACC, for which the binding signal amounted to 0.0802 E-score.

Consider CTAAATCC, for which the binding signal is -0.0651 E-score.

As for GAAACATA, the binding signal is -0.0987 E-score.

For CGGTGCCA, the binding signal is 0.19 E-score.

For AAACCCTT, the binding signal was -0.049 E-score.

Regarding CGAGTAAA, the binding signal is -0.109 E-score.

In the case of CAAGTTTA, the binding signal was -0.133 E-score.

As for CACAGCCG, the binding signal stood at 0.208 E-score.

CTTCCGGA: the binding signal is -0.131 E-score.

For the sequence GTCGATTA, the binding signal came to 0.0341 E-score.

As to ATATCGTC, the binding signal was -0.0159 E-score.

As to CGTAACAA, the binding signal was -0.165 E-score.

For the sequence CATCCCAA, the binding signal is -0.137 E-score.

Take GTTAAAGA: the binding signal is -0.0682 E-score.

ACATTACC: the binding signal was 0.0295 E-score.

Turning to AACTCTAC, the binding signal stood at 0.0642 E-score.

In the case of CAGTGACC, the binding signal amounted to 0.144 E-score.

As to TCTCAAGA, the binding signal is -0.262 E-score.

Consider CATCAGTC, for which the binding signal was -0.193 E-score.

On to GGAGGACA, for which the binding signal stood at 0.246 E-score.

For the sequence ACCGAGCA, the binding signal is -0.00483 E-score.

With AAGAACAG, the binding signal was -0.0217 E-score.

AACTTTCG: the binding signal is -0.171 E-score.

Turning to AGGTATGA, the binding signal is -0.0502 E-score.

For the sequence ACGTACTG, the binding signal was -0.0409 E-score.

Regarding CGAATTAG, the binding signal is -0.0119 E-score.

For the sequence GTCCACAC, the binding signal was determined as 0.211 E-score.

In the case of ATATTCGA, the binding signal was -0.131 E-score.

On to GACTCCGA, for which the binding signal was 0.198 E-score.

Consider AAGTGTAG, for which the binding signal amounted to 0.37 E-score.

As for TCTTCGAA, the binding signal was -0.0753 E-score.

Turning to AGTACCAG, the binding signal worked out at 0.00298 E-score.

Consider ATAGAGGG, for which the binding signal was determined as 0.0878 E-score.

Turning to CACAGAGC, the binding signal is -0.144 E-score.

Consider GTTAGGCA, for which the binding signal is -0.0878 E-score.

With CTGTTTTA, the binding signal is -0.196 E-score.

Turning to GAGCGAGC, the binding signal is -0.118 E-score.

Take CTGTTAAA: the binding signal is -0.225 E-score.

With AGGAGAAA, the binding signal is -0.253 E-score.

For the sequence ATTCTTTC, the binding signal was -0.208 E-score.

For TATACTCA, the binding signal is -0.0349 E-score.

For the sequence CATTACCG, the binding signal was -0.116 E-score.

Regarding GACGCCGC, the binding signal was found to be 0.151 E-score.

As to GGGCCGCA, the binding signal stood at 0.108 E-score.

For ATCATCTA, the binding signal was -0.109 E-score.

On to GACAATAC, for which the binding signal is -0.005 E-score.

Turning to CGCACTAC, the binding signal worked out at 0.152 E-score.

With CCTAGGAC, the binding signal amounted to 0.0243 E-score.

For the sequence ACGATCGA, the binding signal came to 0.0502 E-score.

For the sequence AGGCTAGC, the binding signal is -0.109 E-score.

For GACACGTC, the binding signal amounted to 0.381 E-score.

ACGCGACA: the binding signal amounted to 0.133 E-score.

For the sequence AGAGAAGA, the binding signal is -0.164 E-score.

Turning to CATATGAA, the binding signal is -0.172 E-score.

In the case of ACCCACGT, the binding signal is -0.0517 E-score.

Take ACAAGAAC: the binding signal was -0.0371 E-score.

As to ATTCTCTC, the binding signal is -0.0467 E-score.

For the sequence ACATATTA, the binding signal was -0.0745 E-score.

Take CGAGTGAA: the binding signal is 0.0202 E-score.

On to ATGAGCAT, for which the binding signal is -0.131 E-score.

In the case of GCTGCGTA, the binding signal was -0.123 E-score.

As for CGCAGGCG, the binding signal was -0.0618 E-score.

Turning to AGCAGGCG, the binding signal is -0.111 E-score.

For CTCCCAAG, the binding signal is 0.00752 E-score.

For the sequence ATGTCTGA, the binding signal is -0.0182 E-score.

For CAACGTAA, the binding signal is -0.139 E-score.

For CGGGCCCC, the binding signal stood at 0.0486 E-score.

TGAGTCAA: the binding signal was -0.0259 E-score.

Take ATATTGAA: the binding signal is -0.0529 E-score.

On to GTAAGGCA, for which the binding signal is -0.0249 E-score.

Turning to CAGGCAAC, the binding signal was -0.123 E-score.

In the case of CCGGCAAG, the binding signal was -0.0574 E-score.

Turning to CGGACCCC, the binding signal was found to be 0.141 E-score.

Consider AGAGTACT, for which the binding signal was -0.014 E-score.

CTTAGCCC: the binding signal is 0.0313 E-score.

Take CGTAAAAA: the binding signal was -0.217 E-score.

As for CACGTGCA, the binding signal stood at 0.218 E-score.

Take CACCCGAG: the binding signal is 0.297 E-score.

For the sequence ACAGACCT, the binding signal was -0.25 E-score.

Take ATCCGCCA: the binding signal is -0.123 E-score.

As for CACTGACG, the binding signal amounted to 0.179 E-score.

For the sequence GCTAAACA, the binding signal is -0.0293 E-score.

Take CACGGAGA: the binding signal is 0.126 E-score.

For the sequence AAGTACGA, the binding signal was -0.144 E-score.

Take CGTTCAAG: the binding signal was -0.0844 E-score.

On to CGGGGGGA, for which the binding signal turned out to be 0.0657 E-score.

As for ATAGCCCG, the binding signal was -0.156 E-score.

For the sequence ATCCTTAA, the binding signal is -0.098 E-score.

On to CCGCCACC, for which the binding signal is -0.0188 E-score.

Take ATTCGGAA: the binding signal was -0.0641 E-score.

Consider AGGAAGCC, for which the binding signal is -0.0946 E-score.

For the sequence AAGAGCGT, the binding signal was -0.133 E-score.

Turning to CCTGTGCG, the binding signal came out at 0.0785 E-score.

With ATCTGTGA, the binding signal was -0.0834 E-score.
